# Measurements from the supplement of paper PMC11417369.
# ± gives the standard deviation of the averaged measurements. Some of the results follow.
# System: PfAP2-LT AP2 domain (GST-tagged)
# Assay: gcPBM binding intensity (ln(normalized median fluorescence intensity)); higher = stronger DNA binding
# Outline: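 The highest Masliner-normalised natural-log median intensity across replicate spots of either probe orientation is reported as binding intensity. GST-tagged P. falciparum DNA-binding domains expressed in E. coli were applied for 1 h to an Agilent 4 × 180k array of primer-extended double-stranded 36-bp intergenic genomic probes plus negative controls, and bound protein was detected with Alexa488 anti-GST antibody and scanned at 488 nm.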
row,Sequence,gcPBM binding intensity (ln)
1,TTTAAAATAAATATTACACACAAAATATTAAAAAGC [CACACA_site2129],8.88 ± 0.44
2,ATATATACATATGGGTGTACATATGCACATATATAT [XGTACX_site8437],9.06 ± 0.37
3,ACAAAAAAAAACGTGGTGCATTAATAATATTGTATA [GTGCAC_site9469],8.86 ± 0.5
4,ATAACACAAAAAGGGGGTACAATAAAAAAAAAAAAA [XGTACX_site1652],8.68 ± 0.54
5,TATTTATATAGGTATACACACATACAAATATGTAAA [CACACA_site7705],8.86 ± 0.46
6,AATACCTATAATACAACACACAAGTAATATAAACCT [CACACA_site7661],9.35 ± 0.39
7,TCATTATATACAATATGTACATATATGTAATAAACA [XGTACX_site4611],8.71 ± 0.4
8,AGCACACGCAGACACACACACACACGCACACGCACA [CACACA_site6306],10.3 ± 0.23
9,AAAGGATATGCTTCATATATATATTGTTATATATGT [CACACA_negctrl_site1672],8.72 ± 0.34
10,AAAGAATTCATTATTTGTACTTAAATAAATAAATAA [XGTACX_site5932],8.38 ± 0.38
11,AGAAAGAAAGAATACACACACACATATATATATATC [CACACA_site3744],9.95 ± 0.3
12,AAATTAATATAAATATGTACATAAATAATAAAATAT [XGTACX_site6131],8.84 ± 0.54
13,GGAGGTTGTTATAAAAGTACAAAAAGTTGCAATTTT [XGTACX_site7351],8.76 ± 0.57
14,ATTTTTCAAACTTTAGTGCAATGAAAGAAAGAAAAA,8.36 ± 0.46
15,AAGGAATAAAGAAGTTGTACATAATTTGTATCATCC [XGTACX_site3891],8.83 ± 0.48
16,GTTTTCCTTCCCTTTCCCCCTCAAAAAAAGGGAACA [TGCATGCA_negctrl_site436],8.53 ± 0.31
17,TAAAATTTTTTATTCACACAAATATAGTTATATATA [CACACA_site5348],8.38 ± 0.45
18,ATAAGAAGGAACATAAATATATCATAAAAAAAAAAA [GTGCAC_negctrl_site169],8.7 ± 0.49
19,TATATAATATATAAATGTACTTTTGTCTTATATGAA [XGTACX_site7211],8.43 ± 0.44
20,TAGTAACTTGTATTCACACAAATTATATTATATTAC [CACACA_site5041],8.73 ± 0.4
21,ATACTATAATATAAAACACACATATGTACCTTCTAA [CACACA_site7323],8.96 ± 0.38
22,ATTATTTAAATTTAACGTACGGAATAAGACATAGAT [XGTACX_site8622],8.96 ± 0.45
23,TTCAGGTAATAACATTGTACATGTGTATCATAATTA [XGTACX_site6740],8.78 ± 0.35
24,AATCATTAAAGCATAATGTTTATGATCAATATGAAA [CACACA_negctrl_site887],8.56 ± 0.52
